# Results as given in the supplement of paper PMC4723716.
# ± gives the uncertainty stated by the source. The full ranking holds about 9,900 compounds; the median of “viability index relative to DMSO control” is about 1, and the lowest 2% start at about 0.85. The list shows a part of the results.
# Test system: Plasmodium falciparum NF54 stage V gametocytes
# Test: viability index relative to DMSO control (fraction); higher = less gametocyte killing
# Details: 2.5 µM, library set: Broad Institute DOS, incubation time: 72 h
# Method in brief: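 P. falciparum NF54 stage V gametocytes (serum-free medium, 0.75% gametocytemia, 1.25% hematocrit) were exposed to compound at 2.5 µM for 72 hr at 37°C under low oxygen, then stained with MitoTracker Red CMXRos and saponin for one to two hours. Red particles of 20–70 µm2 in one field per well were counted, and the viability index is that count scaled to the plate mean of solvent-only wells.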
row,Compound,viability index
1,O=C1N[C@H](c2ccccc2)COCc2cnnn2CC[C@H]1Cc1ccc(C(F)(F)F)cc1,1.03 ± 0.049
2,COc1ccc2c3c([C@@H](CO)N(Cc4ccccc4OC)C[C@]33CN(C)C3)n(C)c2c1,0.9572 ± 0.002
3,O=S(=O)(c1ccccc1)N1CC2(C1)[C@@H](c1ccccc1)[C@@H](CO)N2CCC(F)(F)F,1.09 ± 0.08
4,CCCNC(=O)N1C[C@]2(CN(C2)C(=O)CN(C)C)c2c([C@H]1CO)n(C)c1cc(OC)ccc21,1.036 ± 0.0069
5,COc1ccccc1NC(=O)N1C[C@H](O)COC[C@H]2O[C@H](CC(=O)NCCc3ccncc3)CC[C@@H]21,1.08 ± 0.062
6,Cc1ccccc1-c1ccc([C@@H]2[C@H](CO)N3C(=O)CN(C(=O)NC4CCCC4)C[C@@H]23)cc1,1.03 ± 0.037
7,COc1ccc2c3c([nH]c2c1)[C@H](CO)N(Cc1ccccc1Cl)C[C@]31CN(C1)C(=O)C1CC1,0.971 ± 0.052
8,C/C=C/c1ccc([C@H]2[C@@H](CNC(=O)NC(C)C)N(C(=O)C3CC3)[C@H]2CO)cc1,1.064 ± 0.0069
9,N#Cc1ccc(-c2ccc3c(c2)[C@@H]2[C@@H](CCN2C(=O)C2CCCCC2)[C@H](CO)N3)cc1,0.918 ± 0.11
10,CN1[C@@H]2c3ccc(/C=C/c4ccccc4)c(=O)n3C[C@H]1[C@H](CO)[C@H]2C(=O)NC1Cc2ccccc2C1,1.081 ± 0.0019
11,COc1ccccc1S(=O)(=O)N(C)C[C@@H]1OCc2cn(nn2)CCCC(=O)N([C@@H](C)CO)C[C@H]1C,1.03 ± 0.038
12,C[C@@H]1C(=O)N[C@@H](c2ccc3c(c2)OCO3)C/C=C/C[C@H](C)Oc2ccccc2C(=O)N1C.C[C@@H]1C(=O)N[C@@H](c2ccc3c(c2)OCO3)C/C=C\C[C@H](C)Oc2ccccc2C(=O)N1C,0.979 ± 0.08
13,COc1ccccc1-c1cnc2c(c1)C(=O)N([C@H](C)CO)C[C@H](C)[C@@H](CN(C)C(=O)CC1CC1)O2,1.03 ± 0.047
14,C[C@H]1CN([C@@H](C)CO)S(=O)(=O)c2ccc(-c3cccc(C#N)c3)cc2O[C@@H]1CN(C)C(=O)c1ccccc1,0.97 ± 0.029
15,O=C(C[C@@H]1C[C@H]2c3cc(NC(=O)CC4CC4)ccc3O[C@H]2[C@@H](CO)O1)NCC1CC1,1.077 ± 0.0022
16,O=C(C[C@H]1CC[C@H](NC(=O)C2CCOCC2)[C@@H](CO)O1)NCC1CCCCC1,1.026 ± 0.0015
17,C[C@H]1C/C=C/C[C@H](c2ccccc2)NC(=O)[C@H](C)N(C)C(=O)c2ccccc2O1.C[C@H]1C/C=C\C[C@H](c2ccccc2)NC(=O)[C@H](C)N(C)C(=O)c2ccccc2O1,1.06 ± 0.015
18,O=C(C[C@@H]1CC[C@@H]2[C@H](COC[C@H](O)CN2CC2CCOCC2)O1)NCC1CCCCC1,1.07 ± 0.04
19,C[C@@H]1CN([C@H](C)CO)C(=O)c2c(c3ccccc3n2C)-c2ccccc2CO[C@H]1CN(C)C(=O)[C@@H](Cc1ccccc1)N(C)C,1.14 ± 0.11
20,C[C@H](CO)N1C[C@H](C)[C@@H](CN(C)S(=O)(=O)c2ccc(Cl)cc2)Oc2ccc(NC(=O)Cn3cnnn3)cc2CC1=O,1.04 ± 0.033
21,OC[C@@H]1[C@H](c2ccc(-c3ccc(F)cc3)cc2)[C@H](CNC2CCCC2)N1CCC(F)(F)F,0.837 ± 0.1
22,COc1ccc(C#Cc2ccc([C@H]3[C@@H](CO)N4CCCCN(C)C[C@@H]34)cc2)cc1,1.039 ± 0.0014

row,Compound,viability index
1,COc1cccc(CNC(=O)C[C@H]2CC[C@H]3[C@@H](COc4ccc(NS(=O)(=O)c5ccccc5F)cc4C(=O)N3C)O2)c1,1.04 ± 0.033
2,CO[C@@H]1CN(C)C(=O)c2cc(NC(=O)Nc3ccc4c(c3)OCO4)ccc2OC[C@@H](C)N(C(C)=O)C[C@H]1C,1.03 ± 0.015
3,O=C(NCC[C@H]1CC[C@@H](NC(=O)C2CCOCC2)[C@H](CO)O1)c1cc(Cl)cc(Cl)c1,1.06 ± 0.053
4,CN1CCN(C(=O)C[C@H]2CC[C@H]3[C@@H](COC[C@H](O)CN3Cc3cccc(-c4ccncc4)c3)O2)CC1,0.988 ± 0.17
5,COCC(=O)N1CC[C@@]2(CC1)CN[C@@H](CO)c1c2c2ccc(OC)cc2n1C,0.987 ± 0.04
6,O=C(C[C@@H]1C[C@H]2c3cc(NS(=O)(=O)c4ccc(F)cc4)ccc3O[C@H]2[C@H](CO)O1)NCc1cccnc1,1.02 ± 0.045
7,Cc1noc(C)c1NC(=O)Nc1ccc2c(c1)C(=O)N([C@H](C)CO)C[C@H](C)[C@@H](CN(C)S(=O)(=O)c1cccs1)OCCCC[C@H](C)O2,1.083 ± 0.0078
8,C/C=C/c1ccc([C@@H]2[C@H](CO)N(Cc3cncnc3)C23CN(C(=O)COC)C3)cc1,1.08 ± 0.022
9,OC[C@@H]1[C@@H](c2ccccc2)C2(CN(CC3CC3)C2)N1Cc1ccc(F)cc1,0.984 ± 0.077
10,Cc1noc(C)c1S(=O)(=O)Nc1ccc2c(c1)C(=O)N([C@@H](C)CO)C[C@@H](C)[C@H](CN(C)C(=O)Nc1cccc3ccccc13)OCCCC[C@@H](C)O2,1.01 ± 0.068
11,Cc1cc(C(=O)Nc2ccc3c(c2)C(=O)N(C)[C@@H]2CC[C@@H](CC(=O)NCc4ccc(-c5ccccc5)cc4)O[C@H]2CO3)no1,1.04 ± 0.081
12,CCCC(=O)N1C[C@@]2(C1)CN([C@@H](CO)c1[nH]c3cc(OC)ccc3c21)S(=O)(=O)c1ccc(C)cc1,0.9841 ± 0.0028
13,CC(=O)N1CC2(C1)[C@@H](c1ccc(-c3ccc(F)cc3)cc1)[C@@H](CO)N2CC1CC1,1.08 ± 0.023
14,COc1ccc2c3c([C@H](CO)N(Cc4ccc(F)cc4)C[C@]33CCN(C)CC3)n(C)c2c1,0.932 ± 0.099
15,COc1ccccc1-c1ccc2c(c1)O[C@H](CN(C)CC1CCOCC1)[C@H](C)CN([C@H](C)CO)S2(=O)=O,1.04 ± 0.028
16,CCCNC(=O)N1[C@H](C#N)[C@H](c2ccc(C#Cc3cccc(F)c3)cc2)[C@H]1CO,1.0265 ± 0.00037
17,COc1ccccc1-c1ccc([C@@H]2[C@@H](CO)N(CC3CC3)C23CN(S(C)(=O)=O)C3)cc1,1.102 ± 0.0048
18,Cc1ccccc1-c1cnc2c(c1)C(=O)N([C@H](C)CO)C[C@H](C)[C@H](CN(C)Cc1ccccc1F)O2,1.06 ± 0.12
19,COc1ccccc1NC(=O)N[C@H]1CC[C@@H](CCNS(=O)(=O)c2ccc(Cl)cc2)O[C@H]1CO,0.97 ± 0.014
20,C[C@@H]1CN([C@@H](C)CO)C(=O)c2c(c3ccccc3n2C)-c2ccccc2CO[C@@H]1CN(C)C,1.008 ± 0.0079
21,C[C@H]1CN([C@@H](C)CO)C(=O)c2cc(NC(=O)Cn3cnnn3)ccc2O[C@@H]1CN(C)C(=O)Nc1ccc2c(c1)OCO2,1.02 ± 0.085
